{
  "source": "PubChem BioAssay AID1508642",
  "about": "(National Center for Advancing Translational Sciences (NCATS), 2021)",
  "note": "Out of some 43,000 compounds screened, about 200 (0.47%) were called active. About 12% were inconclusive and are not listed. Calls follow the shape of the dose curve; as a rule, active = well fitted cell-killing curve with a large enough effect; inconclusive = small, poorly fitted or top-dose-only effect, or effect the other way; inactive = flat fitted curve, though single readings scatter. Some of the results follow. % is scaled to controls: 0 for no effect and ±100 for the full control effect; potency is read from the fitted curve at half-maximal effect.",
  "data": [
    {"assay": "Cell viability qHTS assay in S16 Pmp22-F2sN cells; also: nearly all actives have a fitted effect of over 65% in size", "conditions": "S16 Pmp22-F2sN Schwann cells viability, CellTiter-Glo, 24 h; series mostly up to 57.5 µM; activity change, negative = cytotoxicity: at the top concentration", "method_in_brief": "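Used to flag compounds lowering reporter output through toxicity, this quantitative HTS measures ATP-based CellTiter-Glo luminescence in S16 Pmp22-F2sN Schwann cells after 24 h compound exposure at 37C.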", "values": [
      {"smiles": "COc1cc(OC)cc(-n2c(=O)c3ccccc3n(Cc3ccccc3C#N)c2=O)c1", "activity change, negative = cytotoxicity": "inactive: -15.2%"},
      {"smiles": "COC(=O)c1ccccc1NC(=O)Cn1nnc(-c2ccc(OC)cc2)n1", "activity change, negative = cytotoxicity": "inactive: -22.5%"},
      {"smiles": "CCCCc1nn2c(=O)cc(COC(=O)c3ccc4c(c3)OCO4)nc2s1", "activity change, negative = cytotoxicity": "inactive: -11.4%"},
      {"smiles": "CCOC(=O)c1cc(-c2ccc(OC)cc2)n(CCC(=O)Nc2cccc(C)c2C)c1C", "activity change, negative = cytotoxicity": "inactive: 3.15%"},
      {"smiles": "COc1cc(NC(=O)c2ccc(-c3nc(CSc4ccccc4)c(C)o3)cc2)cc(OC)c1", "activity change, negative = cytotoxicity": "inactive: -14.2%"},
      {"smiles": "CCc1ccc(NC(=O)Cn2nc(C(F)(F)F)c3c2CCCC3)cc1", "activity change, negative = cytotoxicity": "inactive: 0.13%"},
      {"smiles": "CCC(=O)Nc1cc(-c2cn3cccnc3n2)ccc1OC", "activity change, negative = cytotoxicity": "inactive: 1.17%"},
      {"smiles": "CCOc1ccc(-c2cn3c(n2)sc2cc(C(=O)NCCCN4CCCCC4)ccc23)cc1", "Potency": "active: 7.08 µM"},
      {"smiles": "CC1=C(C(=O)Nc2ccccc2)C(C(C)C)n2nc(SCc3ccccc3C)nc2N1", "note": "(configuration not stated)", "activity change, negative = cytotoxicity": "inactive: 7.29%"},
      {"smiles": "Cc1nc(S(=O)(=O)N2CCN(c3cccc(Cl)c3)CC2)cn1C", "activity change, negative = cytotoxicity": "inactive: 6.82%"},
      {"smiles": "O=C(NCCc1ccc(Cl)cc1)c1ccc2nc(CCc3ccccc3)oc2c1", "activity change, negative = cytotoxicity": "inactive: 5.08%"},
      {"smiles": "COc1cc(OC)cc(-c2nnc(SCC(=O)c3ccc([N+](=O)[O-])cc3)o2)c1", "activity change, negative = cytotoxicity": "inactive: 2.59%"},
      {"smiles": "CC(C)Cn1c(CN2CCN(c3cccc(Cl)c3)CC2)nc2c1c(=O)[nH]c(=O)n2C", "activity change, negative = cytotoxicity": "inactive: -5.45%"},
      {"smiles": "O=C(CSc1nncn2c1cc1occc12)Nc1ccc(F)c(Cl)c1", "activity change, negative = cytotoxicity": "inactive: -2.71%"},
      {"smiles": "COc1ccc(N(CC(=O)NCCc2ccc(C)cc2)S(=O)(=O)c2c(C)nn(C)c2C)cc1", "activity change, negative = cytotoxicity": "inactive: 16.3%"},
      {"smiles": "COc1cc(Nc2nn(-c3ccc(OC(F)(F)F)cc3)nc2C(C)=O)cc(OC)c1", "activity change, negative = cytotoxicity": "inactive: -0.368%"},
      {"smiles": "Cn1c(=O)c2c(nc(N3CCOCC3)n2Cc2ccccc2Cl)n(C)c1=O", "activity change, negative = cytotoxicity": "inactive: 9.96%"},
      {"smiles": "COCCCNC(=O)CCCn1c(=O)c2ccccc2n(CC(=O)Nc2ccc(C)cc2Cl)c1=O", "activity change, negative = cytotoxicity": "inactive: 23.6%"},
      {"smiles": "CC(C)Cn1c(-c2ccccc2Cl)nc2ccccc21", "activity change, negative = cytotoxicity": "inactive: 1.6%"},
      {"smiles": "O=C(NCCc1ccc(Cl)cc1)c1nnc(Cc2ccc(Cl)cc2Cl)o1", "activity change, negative = cytotoxicity": "inactive: 1.06%"},
      {"smiles": "O=C(CCS(=O)(=O)c1cc2c3c(c1)CCN3C(=O)CC2)Nc1cccc(Br)c1", "activity change, negative = cytotoxicity": "inactive: 8.81%"},
      {"smiles": "COc1ccc(CCNS(=O)(=O)c2cc(-c3onc(C)c3C)ccc2OC)cc1OC", "activity change, negative = cytotoxicity": "inactive: -2.01%"},
      {"smiles": "CCOc1ccc(CCNC(=O)c2ccc3c(c2)N(Cc2ccccc2F)C(=O)c2ccccc2S3=O)cc1OCC", "note": "(configuration not stated)", "activity change, negative = cytotoxicity": "inactive: 26.5%"},
      {"smiles": "CCCS(=O)(=O)N1CC(=O)N(c2ccc(C)cc2C)C(C)(C(=O)NC2CCCCCC2)C1", "note": "(configuration not stated)", "activity change, negative = cytotoxicity": "inactive: 2.58%"},
      {"smiles": "O=C(Cn1c(=O)nc(-c2ccccc2)c2cc(Cl)ccc21)NCc1ccc(Cl)cc1", "activity change, negative = cytotoxicity": "inactive: -14.3%"},
      {"smiles": "CCCCN(C)CCNC(=O)CN1C(=O)CSc2ccc(S(=O)(=O)N3CCCCC3)cc21", "activity change, negative = cytotoxicity": "inactive: 15.5%"},
      {"smiles": "CCOC(=O)N1CCc2c(sc(NCc3cccs3)c2C(=O)Nc2ccc(OC)cc2OC)C1", "activity change, negative = cytotoxicity": "inactive: -7.02%"},
      {"smiles": "O=c1c(S(=O)(=O)c2ccccc2)cn(Cc2cccc(F)c2)c2cc(N3CCCC3)c(F)cc12", "activity change, negative = cytotoxicity": "inactive: 4.29%"},
      {"smiles": "CCc1ccc(NC(=O)CSc2nc(=O)n(Cc3ccncc3)c3c2CCC3)cc1", "activity change, negative = cytotoxicity": "inactive: -6.08%"},
      {"smiles": "Cc1ccc(C)c(Nc2nn3c(=O)c4cc5c(cc4nc3s2)OCO5)c1", "activity change, negative = cytotoxicity": "inactive: -2.14%"},
      {"smiles": "Cc1cc2c(cc1S(=O)(=O)CCC(=O)N1CCCCC1C)OCC(=O)N2", "note": "(configuration not stated)", "activity change, negative = cytotoxicity": "inactive: 2.18%"},
      {"smiles": "O=C(COCc1cc(-c2ccc3c(c2)OCO3)on1)Nc1cc(C(F)(F)F)ccc1Cl", "activity change, negative = cytotoxicity": "inactive: 20.5%"},
      {"smiles": "CCN1CCN(CCCNC(=O)Cn2c(-c3cccs3)cc3cc(F)ccc32)CC1", "activity change, negative = cytotoxicity": "inactive: -4.73%"},
      {"smiles": "Cc1oc(-c2ccc(C(=O)NCc3ccccc3Cl)cc2)nc1CN1CCc2ccccc21", "activity change, negative = cytotoxicity": "inactive: 0.458%"},
      {"smiles": "CCCn1c(CCC(=O)Nc2ccc(C)c(Cl)c2)nc2cccnc21", "activity change, negative = cytotoxicity": "inactive: 0.455%"},
      {"smiles": "COc1ccc(C)cc1NC(=O)c1cc(S(=O)(=O)N2CCc3ccccc3C2)ccc1F", "activity change, negative = cytotoxicity": "inactive: 5.29%"},
      {"smiles": "CCCCNC(=O)CCn1c(=O)c2cccn2c2cccnc21", "activity change, negative = cytotoxicity": "inactive: 15.4%"},
      {"smiles": "CCN(C(=O)c1c(C)oc2ncn(CC(C)C)c(=O)c12)c1cccc(Cl)c1", "activity change, negative = cytotoxicity": "inactive: 1.64%"},
      {"smiles": "Cc1ccc(S(=O)(=O)C(CNC(=O)C(=O)NCCc2ccc(Cl)cc2)c2cccs2)cc1", "note": "(configuration not stated)", "activity change, negative = cytotoxicity": "inactive: 5.84%"},
      {"smiles": "O=c1c2ccccc2n2c(-c3ccccc3F)nnc2n1CCc1ccccc1", "activity change, negative = cytotoxicity": "inactive: -7.29%"},
      {"smiles": "COc1cc(OC)c(N(C)C(=O)c2cc3c(=O)oc4ccccc4c3s2)cc1Cl", "activity change, negative = cytotoxicity": "inactive: 13.9%"},
      {"smiles": "Cc1ccc(-n2nc(C(=O)N(C)Cc3ccccc3)c3c4ccccc4n(C)c3c2=O)cc1", "activity change, negative = cytotoxicity": "inactive: 16.9%"},
      {"smiles": "Cc1ccc(C(=O)N(c2ccc(C)cc2)S(=O)(=O)c2ccc(Cl)cc2)cc1", "activity change, negative = cytotoxicity": "inactive: -2.34%"},
      {"smiles": "CC(C)c1ccc(NC(=O)c2ccc3c(O)c(S(=O)(=O)c4ccccc4)c(=O)[nH]c3c2)cc1", "activity change, negative = cytotoxicity": "inactive: -4.05%"},
      {"smiles": "Cc1ccc(NC(=O)C(Cc2ccccc2)N2Cc3ccccc3C2=O)cc1Cl", "note": "(configuration not stated)", "activity change, negative = cytotoxicity": "inactive: -8.55%"},
      {"smiles": "Cc1ccc(-n2c(=O)c3c(c4cc(C)ccc4n3C)n(Cc3ccc(F)cc3)c2=O)cc1", "activity change, negative = cytotoxicity": "inactive: 2.14%"},
      {"smiles": "Cc1ccccc1C(=O)N(Cc1ccc(N(C)C)cc1)CC1CCCO1", "note": "(configuration not stated)", "activity change, negative = cytotoxicity": "inactive: 18.4%"}
    ]}
  ]
}
